{"source": "the supplement of paper PMC12217912", "parents": {"B1": {"name": "TEV protease; numbered along this chain (parent)", "chain": "MGESLFKGPRDYNPISSSICHLTNESDGHTTSLYGIGFGPFIITNKHLFRRNNGTLVVQSLHGVFKVKDTTTLQQHLVDGRDMIIIRMPKDFPPFPQKLKFREPQREERICLVTTNFQTKSMSSMVSDTSCTFPSGDGIFWKHWIQTKDGQCGSPLVSTRDGFIVGIHSASNFTNTNNYFTSVPKNFMELLTNQEAQQWVSGWRLNADSVLWGGHKVFMVKPEEPFQPVKEATQL"}}, "variants_of": "B1", "test": "raw area under fraction-flipped curve 0-4 h after induction (AUC4h, not background-subtracted), DNA-recorder readout of cleavage of the substrate (dimensionless); higher = more cleavage of the substrate by the protease variant", "conditions": "temperature: 34 °C; time window: 0-4 h after rhamnose induction", "experimental": "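In vivo DNA recorder in E. coli TOP10(DE3) ΔrhaA at 34 °C. Each TEVp single-site mutant (parent TEVp 0) is paired with a single-site variant of the 7-mer TEVs (canonical ENLYFQ|S). The substrate sits between flexible linkers in a Bxb1-sfGFP-TEVs-SsrA fusion, so cleavage stabilises Bxb1 and speeds flipping of a recombination array, read by NGS. The value is the raw area under the fraction-flipped curve over 0-4 h after rhamnose induction (AUC4h), with ≥20 reads per time point. It is not background-subtracted; inactive controls average about 0.047.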", "note": "The list shows a part of the results. The full chains were built here from the parent and the listed change. Values near 0.05 are background.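 Further: Bxb1 expression induced with 0.2% (w/v) L-rhamnose at OD600 near 0.5, cultures sampled hourly, flipped fraction per protease–substrate barcode pair counted by paired-end Illumina sequencing.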"}
{"variant": "MGESLFKGPRDYNPISSSICHLTNESDGHTTSLYGIGFGPFIITNKHLFRRNNGTLVVQSLHGVFKVKDTTTLQQHLVDGRDMIIIRMPKDFPPFPQKLKFREPQREERICQVTTNFQTKSMSSMVSDTSCTFPSGDGIFWKHWIQTKDGQCGSPLVSTRDGFIVGIHSASNFTNTNNYFTSVPKNFMELLTNQEAQQWVSGWRLNADSVLWGGHKVFMVKPEEPFQPVKEATQL", "note": "[L112Q]", "values": [{"measurement": "area with substrate CNLYFQS", "value": 0.0556}, {"measurement": "area with substrate FNLYFQS", "value": 0.0675}, {"measurement": "area with substrate GNLYFQS", "value": 0.0548}, {"measurement": "area with substrate HNLYFQS", "value": 0.0582}, {"measurement": "area with substrate KNLYFQS", "value": 0.075}, {"measurement": "area with substrate LNLYFQS", "value": 0.0655}, {"measurement": "area with substrate NNLYFQS", "value": 0.0642}, {"measurement": "area with substrate SNLYFQS", "value": 0.0598}, {"measurement": "area with substrate TNLYFQS", "value": 0.0632}, {"measurement": "area with substrate WNLYFQS", "value": 0.0528}]}
{"variant": "MGESLFKGPRDYNPISSSICHLTNESDGHTTSLYGIGFGPFIITNKHLFRRNNGTLVVQSLHGVFKVKDTTTLQQHLVDGRDMIIIRMPKDFPPFPQKLKFREPQREERICLVTTNFQTKSMSSMVSLTSCTFPSGDGIFWKHWIQTKDGQCGSPLVSTRDGFIVGIHSASNFTNTNNYFTSVPKNFMELLTNQEAQQWVSGWRLNADSVLWGGHKVFMVKPEEPFQPVKEATQL", "note": "[D128L]", "values": [{"measurement": "area with substrate CNLYFQS", "value": 0.0835}, {"measurement": "area with substrate DNLYFQS", "value": 0.105}, {"measurement": "area with substrate FNLYFQS", "value": 0.0745}, {"measurement": "area with substrate GNLYFQS", "value": 0.0889}, {"measurement": "area with substrate HNLYFQS", "value": 0.0745}, {"measurement": "area with substrate INLYFQS", "value": 0.0913}, {"measurement": "area with substrate KNLYFQS", "value": 0.0542}, {"measurement": "area with substrate LNLYFQS", "value": 0.0586}, {"measurement": "area with substrate PNLYFQS", "value": 0.0876}, {"measurement": "area with substrate RNLYFQS", "value": 0.0627}, {"measurement": "area with substrate TNLYFQS", "value": 0.0824}, {"measurement": "area with substrate WNLYFQS", "value": 0.0717}, {"measurement": "area with substrate YNLYFQS", "value": 0.0463}]}
{"variant": "MGESLFKGPRDYNPISSSICHLTNESDGHTTSLYGIGFGPFIITNKHLFRRNNGTLVVQSLHGVFKVKDTTTLQQHLVDGRDMIIIRMPKDFPPFPQKLKFREPQREERICLVTTNFQTKSMSSMVSNTSCTFPSGDGIFWKHWIQTKDGQCGSPLVSTRDGFIVGIHSASNFTNTNNYFTSVPKNFMELLTNQEAQQWVSGWRLNADSVLWGGHKVFMVKPEEPFQPVKEATQL", "note": "[D128N]", "values": [{"measurement": "area with substrate CNLYFQS", "value": 0.0836}, {"measurement": "area with substrate DNLYFQS", "value": 0.086}, {"measurement": "area with substrate FNLYFQS", "value": 0.0457}, {"measurement": "area with substrate HNLYFQS", "value": 0.0783}, {"measurement": "area with substrate KNLYFQS", "value": 0.08}, {"measurement": "area with substrate LNLYFQS", "value": 0.0694}, {"measurement": "area with substrate MNLYFQS", "value": 0.0638}, {"measurement": "area with substrate NNLYFQS", "value": 0.104}, {"measurement": "area with substrate PNLYFQS", "value": 0.0704}, {"measurement": "area with substrate SNLYFQS", "value": 0.0859}, {"measurement": "area with substrate WNLYFQS", "value": 0.0654}, {"measurement": "area with substrate YNLYFQS", "value": 0.0605}]}
{"variant": "MGESLFKGPRDYNPISSSICHLTNESDGHTTSLYGIGFGPFIITNKHLFRRNNGTLVVQSLHGVFKVKDTTTLQQHLVDGRDMIIIRMPKDFPPFPQKLKFREPQREERICLVTTNFQTKSMSSMVSWTSCTFPSGDGIFWKHWIQTKDGQCGSPLVSTRDGFIVGIHSASNFTNTNNYFTSVPKNFMELLTNQEAQQWVSGWRLNADSVLWGGHKVFMVKPEEPFQPVKEATQL", "note": "[D128W]", "values": [{"measurement": "area with substrate CNLYFQS", "value": 0.145}, {"measurement": "area with substrate HNLYFQS", "value": 0.111}, {"measurement": "area with substrate INLYFQS", "value": 0.0934}, {"measurement": "area with substrate PNLYFQS", "value": 0.115}, {"measurement": "area with substrate SNLYFQS", "value": 0.134}, {"measurement": "area with substrate YNLYFQS", "value": 0.121}]}
{"variant": "MGESLFKGPRDYNPISSSICHLTNESDGHTTSLYGIGFGPFIITNKHLFRRNNGTLVVQSLHGVFKVKDTTTLQQHLVDGRDMIIIRMPKDFPPFPQKLKFREPQREERICLVTTNFQTKSMSSMVSITSCTFPSGDGIFWKHWIQTKDGQCGSPLVSTRDGFIVGIHSASNFTNTNNYFTSVPKNFMELLTNQEAQQWVSGWRLNADSVLWGGHKVFMVKPEEPFQPVKEATQL", "note": "[D128I]", "values": [{"measurement": "area with substrate CNLYFQS", "value": 0.0674}, {"measurement": "area with substrate HNLYFQS", "value": 0.112}, {"measurement": "area with substrate INLYFQS", "value": 0.0799}, {"measurement": "area with substrate KNLYFQS", "value": 0.0719}, {"measurement": "area with substrate MNLYFQS", "value": 0.0733}, {"measurement": "area with substrate SNLYFQS", "value": 0.0743}, {"measurement": "area with substrate TNLYFQS", "value": 0.0513}, {"measurement": "area with substrate WNLYFQS", "value": 0.049}, {"measurement": "area with substrate YNLYFQS", "value": 0.0618}]}
{"variant": "MGESLFKGPRDYNPISSSICHLTNESDGHTTSLYGIGFGPFIITNKHLFRRNNGTLVVQSLHGVFKVKDTTTLQQHLVDGRDMIIIRMPKDFPPFPQKLKFREPQREERICLVTTNFQTKSMSSMVSYTSCTFPSGDGIFWKHWIQTKDGQCGSPLVSTRDGFIVGIHSASNFTNTNNYFTSVPKNFMELLTNQEAQQWVSGWRLNADSVLWGGHKVFMVKPEEPFQPVKEATQL", "note": "[D128Y]", "values": [{"measurement": "area with substrate CNLYFQS", "value": 0.0784}, {"measurement": "area with substrate GNLYFQS", "value": 0.0853}, {"measurement": "area with substrate KNLYFQS", "value": 0.0799}, {"measurement": "area with substrate LNLYFQS", "value": 0.0911}, {"measurement": "area with substrate PNLYFQS", "value": 0.0733}, {"measurement": "area with substrate TNLYFQS", "value": 0.055}, {"measurement": "area with substrate WNLYFQS", "value": 0.0611}, {"measurement": "area with substrate YNLYFQS", "value": 0.0715}]}
{"variant": "MGESLFKGPRDYNPISSSICHLTNESDGHTTSLYGIGFGPFIITNKHLFRRNNGTLVVQSLHGVFKVKDTTTLQQHLVDGRDMIIIRMPKDFPPFPQKLKFREPQREERICLVTTNFQTKSMSSMVSDTSCTFPSGDGIFWKHHIQTKDGQCGSPLVSTRDGFIVGIHSASNFTNTNNYFTSVPKNFMELLTNQEAQQWVSGWRLNADSVLWGGHKVFMVKPEEPFQPVKEATQL", "note": "[W144H]", "values": [{"measurement": "area with substrate CNLYFQS", "value": 0.0698}, {"measurement": "area with substrate DNLYFQS", "value": 0.0801}, {"measurement": "area with substrate FNLYFQS", "value": 0.0561}, {"measurement": "area with substrate HNLYFQS", "value": 0.0637}, {"measurement": "area with substrate LNLYFQS", "value": 0.0669}, {"measurement": "area with substrate PNLYFQS", "value": 0.0301}, {"measurement": "area with substrate QNLYFQS", "value": 0.0578}, {"measurement": "area with substrate SNLYFQS", "value": 0.0609}, {"measurement": "area with substrate TNLYFQS", "value": 0.0503}, {"measurement": "area with substrate WNLYFQS", "value": 0.0639}]}
{"variant": "MGESLFKGPRDYNPISSSICHLTNESDGHTTSLYGIGFGPFIITNKHLFRRNNGTLVVQSLHGVFKVKDTTTLQQHLVDGRDMIIIRMPKDFPPFPQKLKFREPQREERICLVTTNFQTKSMSSMVSDTSCTFPSGDGIFWKHNIQTKDGQCGSPLVSTRDGFIVGIHSASNFTNTNNYFTSVPKNFMELLTNQEAQQWVSGWRLNADSVLWGGHKVFMVKPEEPFQPVKEATQL", "note": "[W144N]", "values": [{"measurement": "area with substrate CNLYFQS", "value": 0.0605}, {"measurement": "area with substrate DNLYFQS", "value": 0.0692}, {"measurement": "area with substrate FNLYFQS", "value": 0.0625}, {"measurement": "area with substrate GNLYFQS", "value": 0.0794}, {"measurement": "area with substrate HNLYFQS", "value": 0.0569}, {"measurement": "area with substrate INLYFQS", "value": 0.0527}, {"measurement": "area with substrate MNLYFQS", "value": 0.07}, {"measurement": "area with substrate PNLYFQS", "value": 0.0427}, {"measurement": "area with substrate SNLYFQS", "value": 0.0666}, {"measurement": "area with substrate TNLYFQS", "value": 0.0879}, {"measurement": "area with substrate WNLYFQS", "value": 0.0636}, {"measurement": "area with substrate YNLYFQS", "value": 0.0654}]}
{"variant": "MGESLFKGPRDYNPISSSICHLTNESDGHTTSLYGIGFGPFIITNKHLFRRNNGTLVVQSLHGVFKVKDTTTLQQHLVDGRDMIIIRMPKDFPPFPQKLKFREPQREERICLVTTNFQTKSMSSMVSDTSCTFPSGDGIFWKHKIQTKDGQCGSPLVSTRDGFIVGIHSASNFTNTNNYFTSVPKNFMELLTNQEAQQWVSGWRLNADSVLWGGHKVFMVKPEEPFQPVKEATQL", "note": "[W144K]", "values": [{"measurement": "area with substrate CNLYFQS", "value": 0.0871}, {"measurement": "area with substrate HNLYFQS", "value": 0.0753}, {"measurement": "area with substrate MNLYFQS", "value": 0.0577}, {"measurement": "area with substrate QNLYFQS", "value": 0.0598}, {"measurement": "area with substrate RNLYFQS", "value": 0.0837}, {"measurement": "area with substrate SNLYFQS", "value": 0.0612}, {"measurement": "area with substrate TNLYFQS", "value": 0.0662}, {"measurement": "area with substrate WNLYFQS", "value": 0.0551}, {"measurement": "area with substrate YNLYFQS", "value": 0.0583}]}
{"variant": "MGESLFKGPRDYNPISSSICHLTNESDGHTTSLYGIGFGPFIITNKHLFRRNNGTLVVQSLHGVFKVKDTTTLQQHLVDGRDMIIIRMPKDFPPFPQKLKFREPQREERICLVTTNFQTKSMSSMVSDTSCTFPSRDGIFWKHWIQTKDGQCGSPLVSTRDGFIVGIHSASNFTNTNNYFTSVPKNFMELLTNQEAQQWVSGWRLNADSVLWGGHKVFMVKPEEPFQPVKEATQL", "note": "[G136R]", "values": [{"measurement": "area with substrate CNLYFQS", "value": 0.068}, {"measurement": "area with substrate DNLYFQS", "value": 0.0658}, {"measurement": "area with substrate GNLYFQS", "value": 0.0827}, {"measurement": "area with substrate HNLYFQS", "value": 0.0655}, {"measurement": "area with substrate INLYFQS", "value": 0.0691}, {"measurement": "area with substrate LNLYFQS", "value": 0.0685}, {"measurement": "area with substrate MNLYFQS", "value": 0.0569}, {"measurement": "area with substrate NNLYFQS", "value": 0.0722}, {"measurement": "area with substrate PNLYFQS", "value": 0.0622}, {"measurement": "area with substrate RNLYFQS", "value": 0.0581}, {"measurement": "area with substrate VNLYFQS", "value": 0.0666}, {"measurement": "area with substrate WNLYFQS", "value": 0.0689}, {"measurement": "area with substrate YNLYFQS", "value": 0.051}]}
